Test results from patent US12440573B2, “Antibody-conjugates for targeting of tumours expressing PTK7” (Synaffix B.V., priority 2022, dated 2025).

Test system: PTK7 expressing NCl—H446 tumor model
Assay: In vivo efficacy study, NCl—H446 xenograft (Example 31)
Design: species or system BALB/c nude mice
Details: 5 mg/kg, single IV dose
Experimental: NCl—H446, lung cancer xenograft model cell line was maintained in vitro using RPMI-1640 medium supplemented with 10% FBS in humidified cell culture incubator at 37° C. with standard 5% CO2 specs. The cells in an exponential growth phase were harvested and counted for tumor inoculation.
BALB/c nude mice (female) of 7-9 weeks old received a subcutaneous injection in the right front flank region with 5×10^6 tumor cells in 0.1 ml of PBS mixed with Matrigel (1:1) for tumor development. When tumors reached an average size of 100-200 mm^3, randomization was performed into 6 groups of 8 mice and treatment began. Randomization will be performed based on “Matched distribution” method (Study Director™ Software, version 3.1.399.19). The date of randomization will be denoted as day 0.
Electronic caliper measurement were performed 2 times a week. Daily observations for clinical signs, food and water consumption, behavioral changes, animals were weighed 2 times per week. […]
Observation and data collection: After tumor cells inoculation, the animals are checked daily for morbidity and mortality. […] Tumor volumes are measured every 3-4 days in two dimensions using an caliper, and the volume data are expressed in mm3 using the formula: V=(L×W×W)/2, where V is tumor volume, L is tumor length (the longest tumor dimension) and W is tumor width (the longest tumor dimension perpendicular to L). […]

B1: 4D5-3 (conjugate)
heavy: QVQLVESGGGVVQPGRSLRLSCAASGFTFSSYAFHWVRQAPGKGLEWVAVISYDGSIKYYADSVKGRFTISRDNSKNTLYLQMNSLRAEDTAVYYCARTYYFDYWGQGTLVTVSS[left out - human IgG1 constant region]
light: EIVLTQSPDFQSVTPKEKVTITCRASQSIGSSLHWYQQKPDQSPKLLIKYASQSFSGVPSRFSGSGSGTDFTLTINSLEAEDAAAYYCHQSSSLPITFGQGTRLEIKRTVAAPSVFIFPPSDEQLKSGTASVVCLLNNFYPREAKVQWKVDNALQSGNSQESVTEQDSKDSTYSLSSTLTLSKADYEKHKVYACEVTHQGLSSPVTKSFNRGEC
in vivo efficacy (tumor volume over time): marginal tumor growth delay
